The text below walks through data of PubChem BioAssay (NCI).

The test system of the assay is NCI-H322M lung. Kind of assay: NCI-60 cell line screen, 48 h.

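Values below derive from 48-hour exposures of cells grown in 96-well plates, with endpoints linearly interpolated between the two concentrations bracketing the appropriate inhibition level. The concentration for 50% growth inhibition is given as GI50. Definition used: TGI = concentration required for complete inhibition of growth.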

For the compound `C=C1C(=O)O[C@H]2[C@H]1CC/C(COC(=O)/C=C/c1c[nH]c3ccccc13)=C\CC[C@@]1(C)O[C@@H]21`, the GI50 is 1.73 µM and the TGI amounted to 3.61 µM.

The compound `COc1cc2c(cc1O)CC[C@@H]1C2CC[C@@]2(C)C1CC[C@@H]2O` (stereo partly drawn) showed a TGI greater than 100 µM.

As for `Cc1cc(Cl)ccc1NC(=O)CCCC(=O)C(C(=O)c1ccccc1)c1ccccc1` (stereo not drawn), the TGI was greater than 100 µM.

As to `Cc1cc(S(=O)(=O)Nc2nc3cc(-c4ccsc4)sc3c(=O)n2N)c(S)cc1Cl`, the GI50 was 55.9 µM and the TGI was greater than 100 µM.

On to `CNC(C)Cc1ccc(O)cc1` (stereo not drawn), for which the TGI was greater than 100 µM.

For the compound `COC(=O)/C(=N/O)C(C(=O)OC)C(=O)C(=O)Nc1c(Cl)cc(C)cc1S(=O)(=O)O` (stereo not drawn), the TGI was greater than 100 µM.

Regarding `CCN(CC)CCOc1nc2cc(OC)c(OC)cc2c2c1-c1ccc(OC)cc1C2=O`, the GI50 was 17.6 µM and the TGI is 31.4 µM.

For the compound `C[C@H]1CC2=CC(=O)CC[C@]2(C)[C@H]2CC[C@@]3(C)[C@@H](CC[C@]3(C)O)[C@H]12`, the GI50 is 72.3 µM and the TGI is greater than 100 µM.

As to `O=c1[nH]cnc2nc(-c3ccc(N(CCCl)CCCl)cc3)[nH]c12`, the GI50 was 97.4 µM and the TGI was greater than 100 µM.

`CSC1NNC2(C(=O)N1)c1ccccc1-c1ccccc12` (stereo not drawn) yielded a TGI greater than 10 µM.

Take `N#CC1CCc2c(c(-c3cn[nH]c3C(F)(F)F)nc3c(F)cc4[nH]ncc4c23)C1` (stereo not drawn): the GI50 is 10.1 µM and the TGI amounted to 64.2 µM.

The compound `CC(=O)Nc1ccc(/C=C(\NC(=O)c2ccccc2)C(=O)NNS(=O)(=O)c2ccc(C)cc2)cc1` returned a TGI greater than 100 µM.

`COc1ccc(N2C(=O)C(N3C(=O)C=CC3=O)C2C=O)cc1` (stereo not drawn) showed a TGI greater than 100 µM.

As to `Cc1c(N)nc(C(CC(N)=O)NCC(N)C(N)=O)nc1C(=O)NC(C(=O)NC(C)C(O)C(C)C(=O)NC(C(=O)NCCc1nc(-c2nc(C(=O)NCCCNCCCCN)cs2)cs1)C(C)O)C(OC1OC(CO)C(O)C(O)C1OC1OC(CO)C(O)C(OC(N)=O)C1O)c1cnc[nH]1` (stereo not drawn), the GI50 was 40.2 µg/mL and the TGI is greater than 10 µM.

Take `C=C1CC(OC)(C(O)C(=O)N[C@H]2OCO[C@H]3C2O[C@H](C[C@H](O)COC)C(C)(C)C3OC)O[C@H](C)[C@@H]1C` (stereo partly drawn): the TGI was greater than 0.00772 µM.

`CC(C)N(Cc1ccccc1)S(=O)(=O)c1n[nH]c(C(C)(C)C)n1` came in with a TGI greater than 100 µM.

Compound `COC(=O)/C=C\C(C#N)(C#N)N=Cc1ccsc1` came in with a TGI of 31.1 µM.

As for `COc1ccc(NS(=O)c2cccc(C)c2)cc1` (stereo not drawn), the TGI was greater than 100 µM.

As to `CCC(=O)OC1=CN2C(=NC(c3ccc(N)cc3)=CC2c2cc(OC)c(OC)c(OC)c2)S1` (stereo not drawn), the GI50 was 3.32 µM and the TGI was 12.2 µM.

In the case of `COC(=O)C[C@H](CCSC)NC(=O)C[C@H](CCSC)NC(=O)C[C@H](CCSC)NC(=O)OC(C)(C)C`, the TGI was greater than 100 µM.

Compound `Cc1ccc(SCC(O)=C2C(=O)CCCC2=O)cc1` gave a TGI greater than 100 µM.

In the case of `O=S(=O)(O)c1ccc(Nc2ccnc3cc(Cl)ccc23)cc1`, the TGI was greater than 100 µM.

`CCCC(=O)Nc1cc(/C=C/C(=O)N2C[C@H]3C[C@@]34C2=CC(=O)c2[nH]cc(C)c24)n(C)c1` displayed a TGI of 0.00712 µM.

`CN1N=Nc2c(C(F)(F)F)nn(-c3ccccc3)c2N(C)C1=O`: the GI50 is greater than 100 µM and the TGI was greater than 100 µM.

With `Cc1ccc(/C=C2\CN(Cc3cn(CCNc4ccnc5cc(Cl)ccc45)nn3)C/C(=C\c3ccc(C)cc3)C2=O)cc1`, the GI50 is 1.66 µM and the TGI was 3.18 µM.

`C/C(=C\c1ccccc1)C(=O)NCc1ccc(C(=O)NCCc2c[nH]c3ccccc23)cc1` returned a TGI greater than 100 µM.

With `CCOC(=O)C[n+]1ccc2c([nH]c3cc(OC)ccc32)c1C`, the TGI was greater than 100 µM.

With `C[C@H]1CCC/C=C/[C@@H]2C[C@H](O)C[C@H]2[C@H](O)[C@@H](SC2OC(CO)C(O)C(O)C2O)CC(=O)O1` (stereo partly drawn), the GI50 is 50.5 µM and the TGI was greater than 100 µM.

Consider `O=C1NC(O)CCN1C1CC(O)C(CO)O1` (stereo not drawn), for which the TGI was greater than 100 µM.

In the case of `Cn1c(=O)c2sc3cc4c(cc3c2c2ccccc21)sc1c(=O)n(C)c2ccccc2c14`, the TGI is greater than 100 µM.

Consider `Cc1cc(C)c2c(c1)CC1(Cc3c(C)cc(C)cc3C1=O)C2=O` (stereo not drawn), for which the TGI is greater than 100 µM.

In the case of `O=C(NCCCCNCCCNC(=O)OCc1ccccc1)OCc1ccccc1`, the TGI is greater than 100 µM.

In the case of `CC1OC=CC(=O)C1O` (stereo not drawn), the TGI is greater than 100 µM.

`CCOC(=O)NC(=O)c1cn(C2OC(CO)C(O)C2O)c(=O)[nH]c1=O` (stereo not drawn) gave a TGI greater than 100 µM.

`CC1(C)N=C(N)N=C(N)N1c1ccc(OCCCOc2ccccc2)c(Cl)c1` yielded a TGI of 16 µM.

In turn, `COc1cccc2c1[C@]1(O)C(O)CCCC21` (stereo partly drawn) came in with a TGI greater than 100 µM.

Turning to `Cc1ccc2cnc(N)c(C#Cc3cncc(C(=O)Nc4ccc(CN5CCN(C)CC5)c(C(F)(F)F)c4)c3)c2c1`, the GI50 was 0.34 µM and the TGI came to 0.959 µM.

With `CN(C)c1ccc(/C=C2\C[C@H]3[C@@H]4CCc5cc(O)ccc5[C@H]4CC[C@]3(C)C2=O)cc1`, the TGI was greater than 100 µM.

`O=C(C=P(c1ccccc1)(c1ccccc1)c1ccccc1)c1ccc(-c2ccc(F)cc2F)cc1` had a TGI of 9.32 µM.

On to `O=C(O)c1oc2cccc3c2c1CCC3`, for which the TGI was greater than 100 µM.

In the case of `O=C1OC(c2ccccc2)=N/C1=C/N1CCCC1C(=O)O` (stereo not drawn), the TGI was greater than 100 µM.

`O=C(NCc1ccccc1)c1c(O)c2ccccc2[nH]c1=O` registered a TGI greater than 100 µM.

With `COc1cccc2ccc3c(c12)C(=O)OC31CCc2c(C)cccc21` (stereo not drawn), the TGI was greater than 46.4 µM.

On to `CCCNc1cccc(-n2ncc3c(N/N=C/c4ccncc4)ncnc32)c1`, for which the GI50 is greater than 25 µM and the TGI is greater than 25 µM.

`Cc1ccc2c(=O)c(C(=O)N(CCO)CCO)c[nH]c2n1` showed a TGI greater than 100 µM.

In the case of `O=C(Nc1ccccc1C(=O)O)C(=O)C(C(=O)c1ccccc1-c1ccccc1)C1OC(=O)c2ccccc21` (stereo not drawn), the TGI turned out to be 29.9 µM.

In the case of `COC(=O)C12C3C4C1C1C2C3C41C(=O)N(C(C)C)C(C)C` (stereo not drawn), the TGI was greater than 100 µM.

Take `N#Cc1c(NCc2ccccc2)nc(NCc2ccccc2)c(C#N)c1-c1cccc(O)c1`: the GI50 was 22.1 µM and the TGI is 86.2 µM.

For the compound `CCOC(=O)c1cn(C)nc1N/C(C)=C\C(=O)c1ccccc1`, the TGI was greater than 100 µM.

Turning to `COc1cc2c3c(c1OC)Oc1ccc(cc1)CC1c4c(cc(OC)c(OC)c4Oc4ccc(cc4)CC3N(C)CC2)CCN1C` (stereo not drawn), the TGI is 50 µM.

For the compound `COc1cc(N=Nc2cccc(S(N)(=O)=O)c2)c2ccccc2c1N`, the TGI was determined as 29.4 µM.

`OC(O)(C(F)(F)F)C(F)(F)F` showed a TGI greater than 100 µM.

Take `CCOC(=O)CCC(C(=O)OCC)n1nnc2cc(Nc3c(C)[n+]([O-])c4ccc(Cl)cc4[n+]3[O-])ccc21` (stereo not drawn): the TGI is greater than 100 µM.

In the case of `CC(=O)OCC(OC(C)=O)C(OC(C)=O)C(OC(C)=O)C(=O)CNn1c(-c2ccccc2Cl)nc2ccc(Br)cc2c1=O` (stereo not drawn), the TGI was greater than 100 µM.

Take `Cc1nn2c(/C=C3\C(=O)Nc4ccccc43)c(C)nc2s1`: the GI50 was greater than 100 µM and the TGI is greater than 100 µM.

On to `COC1=CC(=O)c2c(cc(COP(=O)(N(C)CCBr)N(C)CCBr)n2C)C1=O`, for which the TGI came out at 6.61 µM.

In turn, `c1ccc(COc2cccc3cccnc23)cc1` gave a TGI greater than 100 µM.

For `CC1(C)N=C(N)N=C(N)N1c1ccc(OCCCCNC(=O)c2ccc(S(=O)(=O)F)cc2)c(Cl)c1`, the GI50 is 8.14 µM and the TGI was greater than 100 µM.

Consider `N#Cc1ccc2c(c1)C(=O)c1c-2n(CCCN=[N+]=[N-])c(=O)c2cc([N+](=O)[O-])ccc12`, for which the GI50 is greater than 50 µM and the TGI was greater than 50 µM.

`CCOC(=O)c1cc(-c2ccn(C(C)=O)c2)c(-c2cc(C)co2)[nH]1` had a TGI greater than 100 µM.

For the compound `CC(C)=CCC/C(C)=C/[C@H]1OC(=O)CC12C[C@H](O)C=CC2=O` (stereo partly drawn), the GI50 is 1.56 µM and the TGI was 3.16 µM.

Consider `CC1(O)C(=O)OC2CC([C@]3(O)CCC4[C@@H]5C[C@H]6O[C@]67[C@@H](O)C=CC(=O)[C@]7(C)C5CC[C@@]43C)C1(C)C2` (stereo partly drawn), for which the TGI was greater than 100 µM.

Consider `CS(=O)(=O)Nc1cc(-c2ccc3ncnc(Nc4cccc(Cl)c4F)c3c2)cnc1Cl`, for which the GI50 is 2.41 µM and the TGI worked out at 11.2 µM.

In turn, `CC(C)CC(NC(=O)C(COc1ccc([N+](=O)[O-])cc1)Cc1ccccc1)C(=O)Nc1ccccc1` (stereo not drawn) returned a TGI greater than 100 µM.

Turning to `C=Cc1cnc([N+](=O)[O-])n1C`, the TGI is greater than 100 µM.

In turn, `O=[N+]([O-])c1ccc(NC(=S)N/N=C(\c2ccccc2)c2ccccn2)cc1` yielded a TGI of 2.78 µM.

Take `O=S1(=O)CC(Br)C(Br)C1` (stereo not drawn): the GI50 is 27.7 µM and the TGI is greater than 100 µM.

In turn, `COc1cc(-c2[o+]c3cc(O)cc(OC4OC(CO)C(O)C(O)C4O)c3cc2OC2OC(CO)C(O)C(O)C2O)cc(OC)c1O` (stereo not drawn) returned a TGI greater than 100 µM.

For the compound `CC(=O)O[C@H](C[C@H](C(C)C)N(C)C(=O)[C@@H](NC(=O)[C@H]1CCCCN1C)C(C)(C)C)c1nc(C(=O)N[C@@H](Cc2ccccc2)C[C@H](C)C(=O)O)cs1`, the GI50 was less than 0.0025 µM and the TGI was greater than 25 µM.

For the compound `CCOC(=O)c1c(-c2ccc(OC)c(O)c2)c(C#N)c(=S)n(C2OC(CO)C(O)C(O)C2O)c1-c1ccccc1` (stereo not drawn), the TGI is greater than 100 µM.

Consider `C=CCn1c(=O)c2ccccc2[n+]2c(-c3cccc([N+](=O)[O-])c3)csc12`, for which the TGI is greater than 100 µM.

As for `NC(=S)N/N=C\c1nccc2c(C(F)(F)C(F)(F)C(F)(F)F)cccc12`, the GI50 is 0.0405 µM and the TGI was determined as 2.08 µM.

`c1ccc(-c2[nH]c(-c3ccccc3)c(-c3cnccn3)c2-c2cnccn2)cc1` showed a TGI greater than 100 µM.

As for `N=C1C(c2nc(-c3ccc(Br)cc3)cs2)=C(O)CN1CC1CCCO1` (stereo not drawn), the GI50 was greater than 100 µM and the TGI is greater than 100 µM.

In turn, `C=C1C(=O)O[C@H]2[C@H]([C@H](C)CCCC(C)=O)O[C@H]([C@@]3(C)CCC(=O)O3)C[C@@H]12` gave a TGI greater than 100 µM.

Regarding `N#Cc1c(C#N)c(-c2ccccc2)n(/N=C\c2ccccc2)c1N`, the TGI was greater than 100 µM.

Regarding `C=C1C(=O)O[C@H]2C3C(=C(C)CC[C@@H]12)C(=O)[C@@H]1OC31C` (stereo partly drawn), the TGI was determined as 26.7 µM.

Consider `COc1cc(/C=C/c2cc(/C=C/c3ccc(O)c(OC)c3)[nH]c(=O)n2)ccc1O`, for which the GI50 is 4.72 µM and the TGI was 80.5 µM.

`CCCC(=O)OC1CC(n2cc(F)c(=O)[nH]c2=O)OC1CO` (stereo not drawn) returned a TGI greater than 10 µM.
